Here are results for 68 molecules from PubChem BioAssay AID488969 (Vanderbilt High Throughput Screening Facility, 2010).

Over roughly 110,000 compounds, “z-score” has its median near -0.1; the highest 2% begin near 2. The list shows a part of the results. The source made the active and inactive calls.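 Rule for the calls: active = z-score in the third read window above 3 or below -3; inactive = the rest.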

For this test, the target named is Metabotropic glutamate receptor 8 (Rattus norvegicus) (UniProt P70579). As to the kind of experiment: rat mGluR8 modulators via GIRK flux, primary screen, cell-based, thallium flux, HTS (AID 488969). As to conditions: HEK293 rat mGluR8, GIRK (G protein-gated inwardly rectifying potassium channel) thallium flux, FluoZin2; at 10 µM; stronger effect = higher value; submaximal glutamate (EC20) added with thallium.
UniProt P70579, sequence (P70579 whole entry, looked up): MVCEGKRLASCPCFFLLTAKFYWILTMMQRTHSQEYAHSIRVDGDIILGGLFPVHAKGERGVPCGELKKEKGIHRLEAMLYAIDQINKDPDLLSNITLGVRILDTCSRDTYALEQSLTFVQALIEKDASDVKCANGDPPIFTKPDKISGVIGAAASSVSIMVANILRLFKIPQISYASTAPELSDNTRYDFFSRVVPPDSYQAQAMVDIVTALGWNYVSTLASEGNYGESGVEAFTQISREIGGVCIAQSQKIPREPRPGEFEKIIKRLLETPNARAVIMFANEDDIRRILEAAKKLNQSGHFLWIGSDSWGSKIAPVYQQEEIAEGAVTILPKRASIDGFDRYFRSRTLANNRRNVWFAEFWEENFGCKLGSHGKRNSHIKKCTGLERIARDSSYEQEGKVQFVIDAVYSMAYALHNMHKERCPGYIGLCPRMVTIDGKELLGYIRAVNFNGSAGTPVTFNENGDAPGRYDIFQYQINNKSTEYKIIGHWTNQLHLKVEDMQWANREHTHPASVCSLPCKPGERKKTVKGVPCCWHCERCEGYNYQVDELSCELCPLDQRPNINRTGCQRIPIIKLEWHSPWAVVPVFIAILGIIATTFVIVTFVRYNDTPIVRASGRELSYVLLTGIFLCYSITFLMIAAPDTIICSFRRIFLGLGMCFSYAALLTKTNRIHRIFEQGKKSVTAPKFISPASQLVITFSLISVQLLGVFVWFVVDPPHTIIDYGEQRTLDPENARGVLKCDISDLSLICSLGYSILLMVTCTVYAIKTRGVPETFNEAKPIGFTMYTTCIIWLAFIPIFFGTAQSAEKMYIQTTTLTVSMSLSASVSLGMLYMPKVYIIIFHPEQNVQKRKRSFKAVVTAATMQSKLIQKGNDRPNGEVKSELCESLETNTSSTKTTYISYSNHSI
For `CC1=C(C(=O)OCC(C)C)C(c2ccccc2Cl)NC(=O)N1C` (stereo not drawn), the z-score is -0.811.
Regarding `CCOC(=O)C1=C(C)NC(C)=C(C(=O)OCC)C1c1sccc1C`, the z-score was -0.713.
The result for `CN(C)S(=O)(=O)c1ccc(NC(=O)/C=C/c2ccccc2Cl)cc1` reads -0.0315; that for `CCCNS(=O)(=O)c1ccc2c(c1)CCCN2C(C)=O`, 0.0768.
The result for `Cc1ccccc1-c1cc(C(=O)n2cccn2)c2cc(Cl)ccc2n1` reads -0.109; that for `CC(C)CNC(=S)NC1CC2CCCC(C1)N2Cc1ccco1` (stereo not drawn), -0.323; that for `Cn1c(=O)c2c(nc(SCC(=O)NC34CC5CC(CC(C5)C3)C4)n2C)n(C)c1=O`, -0.0708.
Turning to `Cc1ccc(N2C(=O)[C@@H]3C(C(=O)CCN4C(=O)c5ccccc5C4=O)=NN[C@@H]3C2=O)cc1`, the z-score was -0.0443.
The result for `COc1cc2c(cc1OC)C(c1ccc(-c3ccccc3Cl)o1)=NCC2` reads 0.221; that for `C=CCn1c(-c2cccnc2)n[nH]c1=S`, 0.11; that for `CC(C)NC(=S)NC(=O)/C=C/c1ccc(F)cc1`, 0.778.
Consider `O=C(O)CCC(=O)CCC(=O)c1ccccc1`, for which the z-score was 0.419.
The result for `CCOc1cc(/C=N/NC(=O)CSc2nncn2C)ccc1OCc1ccccc1` reads -0.181; that for `Cc1ccc(C)c(S(=O)(=O)Nc2ccccc2C(=O)Nc2ccccc2N2CCOCC2)c1`, -0.108.
With `Cc1cc(NS(=O)(=O)c2ccc(NC(=O)CCN3C(=O)c4ccccc4C3=O)cc2)no1` the figure was 0.346; with `Cc1ccc2c(=O)cc(C(F)F)oc2c1`, -0.151; with `CC(=O)C1=NN(c2ccccc2)C2(S1)S/C(=C\c1ccccc1)C(=O)N2c1ccccc1` (stereo not drawn), 0.304.
With `CCOC(=O)Nc1ccc2c(CN3C(=O)NC4(CCCC4)C3=O)cc(=O)oc2c1` the figure was -1.22.
The molecule `CC(C)CNC(=O)c1ccccc1NC(=O)CN(c1ccc2c(c1)OCCO2)S(C)(=O)=O` registered a z-score of 0.117.
With `CCCOP(=O)(OCCC)C(Nc1cccc(C(F)(F)F)c1)c1ccc(C)cc1` (stereo not drawn) the figure was -0.188; with `O=C(c1cnn2c(C(F)(F)F)cc(-c3ccco3)nc12)N1CCCCCC1`, 2.24; with `O=C(CSc1nnnn1-c1ccc(F)cc1)Nc1nc2ccccc2s1`, -0.0332.
The result for `Cc1onc(-c2ccccc2)c1C(=O)NCCc1ccc(S(N)(=O)=O)cc1` reads 0.0031; that for `CCOC(=O)CCSCC(=O)N1N=C(c2cccs2)CC1c1ccc(C)cc1` (stereo not drawn), -0.183; that for `CCOC(=O)N1CCN(C(=O)c2cc3c(=O)n(C)c4ccccc4c3n2C)CC1`, -0.195.
The result for `Cc1ccc(CNC(=O)C2CC(c3cccc([N+](=O)[O-])c3)=NO2)o1` (stereo not drawn) reads 0.0173.
For the molecule `CC(C)Cc1nnc(NC(=O)CC(=O)Nc2ccccc2C(=O)O)s1`, the z-score is -0.0541.
On to `COc1cc(NC(=O)c2ccc(-c3ccc(Br)cc3)o2)ccc1NC(=O)C(C)C`, for which the z-score turned out to be 0.116.
The result for `CC(C)C(=O)NC(NC(=S)Nc1ccc(S(N)(=O)=O)cc1)C(Cl)(Cl)Cl` (stereo not drawn) reads -0.182; that for `Cc1ccc(NC(=O)CCSCCC(=O)Nc2ccc(C)c(C)c2)cc1C`, -0.0616; that for `CCC(=O)Nc1c(C(=O)N2CCN(c3ccccn3)CC2)cnn1-c1ccc(Cl)cc1`, 0.153.
With `CCCCC(=O)NCCc1ccc(S(N)(=O)=O)cc1` the figure was 0.0853; with `O=[N+]([O-])c1ccccc1/C=C/C=N/n1c(-c2ccc(Cl)cc2)n[nH]c1=S`, 1.13; with `C=CCNC(=S)NCc1cccnc1`, 0.214.
The result for `FC(F)(F)c1cccc(NC(=S)NCc2ccccc2)c1` reads active: 5.63; that for `O=C(NCCCn1ccnc1)c1cnn2c1NC(c1ccccc1)CC2C(F)(F)F` (stereo not drawn), -2.61.
Consider `O=C(CSc1ccc2nnc(-c3ccccn3)n2n1)Nc1ccc2c(c1)OCO2`, for which the z-score is -0.598.
With `O=C(c1cccn2c(=O)c3ccccc3nc12)N1CCN(Cc2ccc3c(c2)OCO3)CC1` the figure was 0.133; with `COc1cc(NS(=O)(=O)c2ccc(NC(=O)c3ccco3)cc2)nc(OC)n1`, -2.68.
With `COc1ccc(-c2csc(N3C(=O)C4C5c6ccccc6C(c6ccccc65)C4C3=O)n2)cc1` (stereo not drawn) the figure was 0.0247; with `O=C(Cc1nc2ccccc2[nH]1)NCc1ccco1`, 0.75; with `Cc1cc(C)n2nc3ccccc3c2n1`, -0.00936.
With `COc1ccc(COC(=O)NNC(=O)c2ccc(OC)cc2)cc1` the figure was -0.0393.
For `C/C(=N/NC(=O)c1ccc(Cl)s1)c1ccc(NC(=O)COc2ccc(Cl)cc2)cc1`, the z-score was -0.207.
With `CC(=O)c1cc(-c2ccccc2)[nH]c1N1CCOCC1` the figure was -0.141.
With `CCOC(=O)n1c(=O)n(Cc2ccc(Cl)cc2Cl)c2ccccc21` the figure was -0.103.
The result for `O=C(NC(c1ccccc1)c1ccccc1)C1(c2cccs2)CCOCC1` reads 0.325.
`COc1ccnc(CSC(N)=Nc2ccccc2OC)c1`: the z-score is -0.21.
The result for `CCCCNC(=O)C1(c2ccc(OC)cc2)CCOCC1` reads -0.117.
With `CC(C)C(C(=O)Nc1ccccc1)N1C(=O)c2ccccc2C1=O` (stereo not drawn) the figure was -0.45; with `CCC(C)NC(=O)CSc1nc2ccsc2c(=O)n1NC(=O)c1ccccc1` (stereo not drawn), -0.265; with `CCSc1nnc(CNC(=O)C23CC4CC(CC(C4)C2)C3)n1Cc1ccccc1`, -0.373.
With `Cc1ccccc1NS(=O)(=O)c1ccc(NC(=O)CSCc2ccc(Br)cc2)cc1` the figure was -0.00415; with `O=C(Nc1ccccc1-c1nc2ccccc2s1)c1ccco1`, -0.0204; with `CCOC(=O)c1sc(NC(=O)C2CC2)cc1C`, -0.273.
With `CCc1c(C(C)S(=O)(=O)c2ccc(C)cc2)[nH]c(=O)n1-c1ccc(OC(F)(F)F)cc1` (stereo not drawn), the z-score was -0.165.
The result for `C/C(=N\NC(=O)CC(C)C)c1ccc(N2CCCCC2)cc1` reads -0.188.
The result for `CC(NC(=O)COC(=O)[C@@H]1CCCN1S(=O)(=O)c1ccccc1F)C12CC3CC(CC(C3)C1)C2` (stereo partly drawn) reads -0.122; that for `O=C(N/N=C1\CCCc2ccccc21)c1ccc([N+](=O)[O-])cc1Cl`, -0.814.
The result for `COc1ccc(NC(=O)c2cccc(OC(F)F)c2)cc1Cl` reads -0.169; that for `Cc1ccc(/C=C(\NC(=O)c2ccccc2)C(=O)OCc2ccccc2)cc1`, -0.446.
In turn, `CCCNC(=O)c1ccccc1NC(=O)c1ccc(CSc2ccccc2)cc1` displayed a z-score of 0.0178.
With `Cc1ccc(S(=O)(=O)/N=C(/c2ccc(F)cc2)N2CCCCC2)cc1` the figure was -0.248; with `COc1ccccc1-c1nc(C#N)c(N2CCCCCC2)o1`, -2.54.
The result for `COc1cc(NC(=O)C2CC2C)c(C(=O)O)cc1OC` (stereo not drawn) reads -0.191.
With `CC1CCCC(C)N1S(=O)(=O)c1ccc(S(=O)(=O)NCc2ccccc2)cc1` (stereo not drawn) the figure was 0.891; with `COC(=O)c1ccc(CSc2nnc(CNC(=O)c3ccc(OC)cc3)o2)o1`, 0.0897; with `COc1ccc(CCNc2nc(N3CCOCC3)nc(N3CCOCC3)n2)cc1OC`, 0.342.
